# Out of some 310,000 compounds screened, about 2,200 (0.71%) showed an effect of 50% or more. Effects have a minus sign here. The list shows a part of the results.
# Target: human ether-à-go-go-related gene (hERG) potassium channel (human, UniProt Q12809)
# Assay: primary screen, population patch clamp on CHO cells stably expressing hERG
# human ether-à-go-go-related gene (hERG) potassium channel, sequence (Q12809 whole entry, looked up): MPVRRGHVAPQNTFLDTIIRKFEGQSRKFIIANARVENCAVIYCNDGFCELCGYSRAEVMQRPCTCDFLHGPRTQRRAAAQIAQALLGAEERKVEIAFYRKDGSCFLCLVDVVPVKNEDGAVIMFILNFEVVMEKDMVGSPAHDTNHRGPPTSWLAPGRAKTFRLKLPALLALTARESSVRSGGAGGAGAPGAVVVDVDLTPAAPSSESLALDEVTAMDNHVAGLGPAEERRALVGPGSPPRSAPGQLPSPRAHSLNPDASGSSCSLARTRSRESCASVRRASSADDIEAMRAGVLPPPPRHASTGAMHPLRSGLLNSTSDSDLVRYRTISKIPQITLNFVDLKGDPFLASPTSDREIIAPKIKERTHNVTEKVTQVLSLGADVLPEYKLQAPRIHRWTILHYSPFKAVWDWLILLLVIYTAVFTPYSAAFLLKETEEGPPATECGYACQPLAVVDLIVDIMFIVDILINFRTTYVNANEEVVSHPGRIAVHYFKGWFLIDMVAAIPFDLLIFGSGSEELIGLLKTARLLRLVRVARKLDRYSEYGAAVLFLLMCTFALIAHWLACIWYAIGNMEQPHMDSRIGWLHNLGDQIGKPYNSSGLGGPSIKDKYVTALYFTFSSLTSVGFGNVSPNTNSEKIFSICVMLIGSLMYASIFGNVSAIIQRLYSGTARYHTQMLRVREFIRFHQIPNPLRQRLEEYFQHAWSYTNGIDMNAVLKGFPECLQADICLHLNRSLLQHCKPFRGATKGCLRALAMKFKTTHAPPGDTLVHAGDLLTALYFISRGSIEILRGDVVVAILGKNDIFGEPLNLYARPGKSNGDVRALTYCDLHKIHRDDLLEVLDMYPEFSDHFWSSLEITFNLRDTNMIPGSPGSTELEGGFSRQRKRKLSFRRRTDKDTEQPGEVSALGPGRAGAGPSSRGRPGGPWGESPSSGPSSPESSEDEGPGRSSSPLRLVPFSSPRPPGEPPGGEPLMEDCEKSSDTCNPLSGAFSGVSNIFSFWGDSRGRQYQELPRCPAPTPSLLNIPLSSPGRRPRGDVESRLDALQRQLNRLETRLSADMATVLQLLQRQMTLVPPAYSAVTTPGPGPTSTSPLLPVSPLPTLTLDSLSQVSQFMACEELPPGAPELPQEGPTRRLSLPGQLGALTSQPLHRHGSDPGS
row,Compound,"hERG current change (%, negative = inhibition) at 1uM [%]"
1,COc1ccc(Nc2ncnc3c2cnn3-c2ccccc2)cc1OC,2.27
2,CCc1ccccc1NC(=S)/N=C(\N)Nc1nc(C)c2cc(C)ccc2n1,-1.21
3,COc1cc(C)ccc1OCCOCCOc1cc(C)c(C)cc1Br,9.18
4,COc1ccc(OC)c(/C=N/NC(=O)c2csc3ccccc23)c1,4.56
5,Nc1nc2c(ncn2C2C[C@H](O)[C@@H](CO)O2)c(=O)[nH]1 (stereo partly drawn),9.96
6,CC(=O)C(Cc1cnc(Cl)s1)(Cc1cnc(Cl)s1)C(C)=O,1.44
7,O=C(NCC(=O)N(c1cccc(F)c1)C(C(=O)NC1CCCC1)c1ccncc1)c1ccco1 (stereo not drawn),8.29
8,Cc1ccccc1OCC(=O)Nc1cccc(NC(=O)c2ccco2)c1,8.48
9,COc1ccc(CCNC(=O)C2CCN(C(=O)c3cccc(Cl)c3)CC2)cc1OC,19.3
10,Cc1ccc(NC(=O)c2ccc(CN3CCc4ccccc4C3)cc2)cc1,11.9
11,Cc1ccc(CCC(=O)Nc2ncc(Cc3cc(Cl)ccc3Cl)s2)o1,12.4
12,CCCS(=O)(=O)N1CCC(C(=O)NCC2CCCO2)CC1 (stereo not drawn),-3.78
13,CC(=O)NC(Cc1c[nH]c2ccccc12)C(=O)N1CCN(S(=O)(=O)c2ccccc2)CC1 (stereo not drawn),15
14,CC(C)(C)NC(=O)c1cc(C(C)(C)C)c(O)c(C(C)(C)C)c1,7.47
15,CN(CC(=O)Nc1ccccc1Cl)C(=O)COC(=O)CSc1ccc(F)cc1,-15.6
16,CCCCCCCCCCCC(=O)N1CC(=O)NC(=O)C1,10.3
17,Cc1ccc2c(c1)C(=O)C(=O)N2CC1COc2ccccc2O1 (stereo not drawn),10
18,Cc1cc(C)cc(OCCCCn2cncn2)c1,13.5
19,COc1ccc2nc(C(F)(F)C(F)(F)F)c(C#N)c(N)c2c1,11.9
20,CCOC(=O)C1CCN(Cc2cn[nH]c2-c2ccc(C)cc2)CC1,-23.6
21,CC(C)Oc1ccc(S(=O)(=O)N2CCOCC2)cc1NC(=O)CC1OC(=O)c2ccccc21 (stereo not drawn),12.4
22,Cc1nc(C2COc3ccccc3O2)sc1C(=O)O (stereo not drawn),5.63
23,Nc1nc(NCCOCCO)nc(NC2CCCCC2)c1[N+](=O)[O-],7.16

row,Compound,"hERG current change (%, negative = inhibition) at 1uM [%]"
1,OCCC1CN(C2CSCCSC2)CCN1Cc1ccccc1 (stereo not drawn),13.2
2,Cc1ccc(Cl)cc1N(CC(=O)N1CCOCC1)S(C)(=O)=O,6.86
3,COC(=O)c1ccc(C(=O)N(C)C2CCCN(Cc3ccccc3F)C2)nc1 (stereo not drawn),17.2
4,CCN(c1ccc(OC)cc1)S(=O)(=O)c1nnc(NC(=O)CC(C)C)s1,11.7
5,CC1=CC(C)(C)NC(=S)N1c1cccc2cc(S(=O)(=O)O)ccc12,19.5
6,COc1ccc(CCNC(=O)C(=O)c2cn(CC(=O)N3CCOCC3)c3ccccc23)cc1,6.84
7,O=[N+]([O-])c1ccc(OCCn2cncn2)cc1,13.6
8,O=Cc1cnc(N2CCN(Cc3ccccc3)CC2)s1,12.4
9,Cc1ccc(C(=O)CSc2nnc(COc3cccc4cccnc34)o2)cc1,11.1
10,Cc1sc2ncnc(NCc3ccco3)c2c1C,-3.17
11,COC(=O)c1ccc(Cn2nc(-c3cc(C)ccc3C)ccc2=O)cc1,6.81
12,O=C(Cn1c2ccccc2c2nc3n(c(=O)c21)CCS3)N1CCCC1,13.7
13,Cc1ccc(C)c(N/C=C(\C#N)c2nc3ccccc3o2)c1,7.76
14,CC1CCCCC12NC(=O)N(Cc1cc(=O)n3ccsc3n1)C2=O (stereo not drawn),3.7
15,Cc1cc(S(=O)(=O)NCC(C)C)ccc1OCC(=O)N1CCN(Cc2ccccc2)CC1,4.16
16,C/C(=N/NC(=O)c1ccccn1)c1ccco1,2.75
17,CN(C(=O)COC(=O)c1cc(=O)[nH]c2ccccc12)c1c(N)n(Cc2ccccc2)c(=O)[nH]c1=O,0.122
18,O=C(Cc1ccccc1)N1CCN(Cc2ccccn2)CC1,6.39
19,Cc1c(C(=O)Nc2cnccn2)oc2ccccc12,10.1
20,O=C(/C(=N/N=C/c1ccc(O)c(O)c1)c1ccccc1)c1ccccc1,3.35
21,Cn1c(SCc2ccccn2)nc2c1c(=O)[nH]c(=O)n2C,7.25
22,O=C(O)c1ccc(-c2noc(-c3ccccc3F)n2)cc1,25.3
23,CC(=O)c1ccc(OCC(O)CN2CCN(S(=O)(=O)c3c(C)cc(C)cc3C)CC2)cc1.O=C(O)C(=O)O (stereo not drawn),5.85

row,Compound,"hERG current change (%, negative = inhibition) at 1uM [%]"
1,CCn1c(=O)cc(SCC(=O)NCc2ccccn2)c2ccccc21,13.3
2,COc1ccccc1N(C)S(=O)(=O)c1ccc(Cl)c(C(=O)NCc2cccnc2)c1,7.53
3,CNC(=S)NNC(=O)c1ccccc1Cl,13.5
4,O=C(c1nc2ccc(Cl)cn2c1CN1CCC(O)CC1)N1CCc2ccccc2C1,3.61
5,O=c1cc(C(F)(F)F)nc(-c2cccnc2)[nH]1,13.5
6,Cc1cccc(C)c1NC(=O)C(c1ccc([N+](=O)[O-])cc1)N1CCCCC1 (stereo not drawn),2.99
7,O=C(O/N=C/c1ccc2c(c1)OCO2)c1ccc([N+](=O)[O-])cc1,16.2
8,CC1CN(C(=O)COC(=O)Cc2ccc(Cl)cc2)CC(C)O1 (stereo not drawn),1.15
9,Cc1ccc(CSc2nnc(-c3cccnc3)o2)cc1,10.9
10,CCCCn1c(N)c(N(CCC(C)C)C(=O)c2oc3ccc(OCC)cc3c2C)c(=O)[nH]c1=O,5.54
11,COc1ccccc1S(=O)(=O)n1cc(Cc2ccccc2)c(N)n1,1.59
12,COc1cccc(-c2nc3sc4c(c3c(=O)[nH]2)CCCCC4)c1,21.4
13,CSc1cccc(NC(=S)N(C(C)C)C(C)c2ccccn2)c1 (stereo not drawn),15.7
14,CC1(OC(=O)C2CCCC2)C(=O)C=C2C=C(c3ccsc3)N(C(CO)CO)C=C2C1=O (stereo not drawn),-7.11
15,O=C(NC1CC1)c1ccc(S(=O)(=O)NC2CCCCCC2)cc1,2.1
16,CC(C)[C@H](NS(=O)(=O)c1ccc2c(c1)OCCO2)C(=O)OCC(=O)Nc1ccccc1Cl,12.9
17,O=C(Nc1ccc(Cn2cccn2)cc1)c1ccc(COc2ccccc2Br)cc1,14.1
18,COc1cccc(C(=O)Nc2nnc(C3CCCO3)s2)c1 (stereo not drawn),5.56
19,CC(C)CCNC(=O)c1ccc2c(c1)ncn2C1CCCC1,-9.77
20,Cc1ccc(-c2cnc(NCc3cc4c(cc3[N+](=O)[O-])OCO4)n2C)cc1C,12.5
21,COc1cccc([C@@H]2Oc3ccc(Br)cc3C(=O)[C@H]2OC(=O)NC2CCCC2)c1,12.3
22,COc1ccc(/C=C2/C(=O)ON=C2C)cc1Cl,26.8
23,COc1ccc(C(=O)O)cc1S(=O)(=O)Nc1ccccc1C(=O)NCc1ccc2c(c1)OCO2,12.6

row,Compound,"hERG current change (%, negative = inhibition) at 1uM [%]"
1,CCOc1cc(-c2noc(CCCC(N)=O)n2)cc(Br)c1OC,5.46
2,COc1ccc(OC)c(-n2c(-c3ccc(O)cc3O)n[nH]c2=S)c1,12.7
3,CCOc1ccc(C(=O)Nn2cnnc2)cc1OCC,-23.6
4,COc1ccc([N+](=O)[O-])cc1Nc1ncnc2ccccc12,6.32
5,Cc1nn(CCOc2cccc(Br)c2)c(C)c1[N+](=O)[O-],6
6,COc1ccc(N(CC(=O)Nc2ccccc2C(=O)NCC(C)C)S(C)(=O)=O)cc1,9.87
7,COCC1OS(=O)(=O)NC(CC(=O)SC(C)(C)C)C1C (stereo not drawn),9.98
8,COC(=O)Nc1nnc(SCc2ccc(C)cc2)s1,16
9,Cn1c(=O)c2c(nc(Br)n2Cc2nnc(N)s2)n(C)c1=O,6.35
10,COc1ccc(CCN)cc1O.Cl,15.1
11,CC(=O)N(C1CC(C)C(C#N)(C#N)C1(C#N)C#N)N(C)C (stereo not drawn),-10.5
12,COc1ccc(N(CC(=O)Nc2cccc3ccccc23)S(C)(=O)=O)cc1,8.23
13,Cc1ccc(S(=O)(=O)/C(=C/Cl)NC(=O)c2ccccc2)cc1,12.1
14,Cc1cccc(N2CCN(C(=O)c3ccc(Cl)c(S(=O)(=O)N4CCc5ccccc5C4)c3)CC2)c1C,11.7
15,CC(C)(C)c1ccc(C(CC(=O)O)NC(=O)Cc2ccccc2)cc1 (stereo not drawn),14
16,O=C(NC(=S)Nc1ccc(O)cc1)c1cncc(Br)c1,15.3
17,COc1ccccc1CN(C)C(=O)c1ccc2c(c1)NC(=O)CS2,12.9
18,CC#CCN(CC#CC)S(=O)(=O)c1ccc(-n2cnnn2)c(OC)c1,-2.59
19,Cc1cc(C)n(-c2cc(-n3nc(C)cc3C)ncn2)n1,0.604
20,O=C(Nc1cccc(-c2cn3ccccc3n2)c1)c1cccc(Cl)c1,6.61
21,CCSc1nc2c(c(=O)[nH]1)C(c1ccc(C)cc1)C1=C(CCCC1=O)N2 (stereo not drawn),8.43

# Source: PMC4336329 (PLoS ONE, 2015)
